{
  "source": "PubChem BioAssay AID588342",
  "about": "(National Center for Advancing Translational Sciences (NCATS), 2011)",
  "note": "The whole screen tested about 360,000 compounds, of which about 25,000 (6.9%) were called active. The shares of active, inactive and inconclusive entries below differ from those in the screen. Calls follow the shape of the dose curve; as a rule, active = well fitted inhibition curve with a large enough effect; inconclusive = small, poorly fitted or top-dose-only effect; inactive = flat fitted curve, though single readings scatter. Potencies of inconclusive entries are doubtful fits and often do not repeat. Potency is read from the fitted curve at half-maximal effect; tags tell the direction and shape of the fitted curve.",
  "data": [
    {"target": "Luciferin 4-monooxygenase (Photinus pyralis) (UniProt P08659)", "sequence (P08659 whole entry, looked up)": "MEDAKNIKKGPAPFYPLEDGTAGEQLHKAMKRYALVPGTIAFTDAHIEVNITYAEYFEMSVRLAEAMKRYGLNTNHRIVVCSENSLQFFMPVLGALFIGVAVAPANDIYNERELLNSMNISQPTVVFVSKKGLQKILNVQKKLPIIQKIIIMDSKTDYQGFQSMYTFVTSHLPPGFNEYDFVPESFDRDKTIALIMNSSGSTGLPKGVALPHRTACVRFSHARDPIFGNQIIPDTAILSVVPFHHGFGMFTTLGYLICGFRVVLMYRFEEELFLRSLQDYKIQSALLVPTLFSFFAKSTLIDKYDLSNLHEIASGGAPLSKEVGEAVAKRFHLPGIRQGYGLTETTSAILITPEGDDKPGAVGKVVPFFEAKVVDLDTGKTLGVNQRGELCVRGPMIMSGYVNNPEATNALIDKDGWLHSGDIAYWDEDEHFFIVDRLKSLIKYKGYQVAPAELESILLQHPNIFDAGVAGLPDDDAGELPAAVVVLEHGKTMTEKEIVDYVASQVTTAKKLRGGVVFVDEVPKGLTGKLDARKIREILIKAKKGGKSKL", "assay": "qHTS profiling assay for firefly luciferase inhibitor/activator using purifed enzyme and Km concentrations of substrates (counterscreen for miR-21 project); also: nearly all actives have a fitted effect of over 55% in size;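 as to activity change, negative = inhibition: plate controls were vehicle for no effect and reference inhibitor for full effect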", "settings": "purified FLuc, luminescence inhibition; series mostly up to 57.5 µM; activity change, negative = inhibition: at the top concentration", "method_in_brief": "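Purified P. pyralis luciferase (10nM final) with 10uM D-luciferin and 10uM ATP (Km levels) in 50mM Tris acetate pH 7.5, 10mM Mg acetate, 0.01% Tween-20, 0.05% BSA; qHTS 6-point titration, ~60 µM downward; luminescence read.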", "values": [
      {"smiles": "NC(=O)c1ccsc1NC(=O)CCc1ccccc1", "Potency": "inconclusive: 16.9 µM [inhibitor, partial curve]"},
      {"smiles": "Cc1cc(C)cc(Nc2cc(C(=O)NCCCN(C)C3CCCCC3)c3ccccc3n2)c1", "Potency": "inconclusive: 21.3 µM [inhibitor, partial curve, poor fit]"},
      {"smiles": "O=C(Nc1ccc2c(c1)OCCO2)c1ccc(Br)s1", "Potency": "active: 0.675 µM"},
      {"smiles": "COc1ncccc1-c1nnn(-c2ccc(C)cc2)n1", "Potency": "active: 4.26 µM"},
      {"smiles": "COc1c(Cl)cc(Cl)cc1/C=C/C(=O)c1ccc(NC(=O)c2cccs2)cc1", "Potency": "inconclusive: 37.9 µM [inhibitor, partial curve, poor fit]"},
      {"smiles": "Cc1nc(-c2ccc(C(=O)N3CCCC3)cc2)cs1", "Potency": "inconclusive: 13.5 µM [inhibitor, partial curve]"},
      {"smiles": "COCCNC(=O)c1nn(-c2ccc(C)cc2)c(=O)n(C)c1=O", "activity change, negative = inhibition": "inactive: -2.46%"},
      {"smiles": "CCn1c(CNC(=O)c2ccc(OC)c(OC)c2)nnc1SCC(=O)c1ccc(OC)cc1", "Potency": "inconclusive: 37.9 µM [inhibitor, single point]"},
      {"smiles": "COc1ccc(C(=O)Nc2ccc(CN3CCOCC3)cc2)cc1", "Potency": "active: 12 µM"},
      {"smiles": "COc1ccc(CCNC(=O)c2cnn3ccccc23)c(OC)c1OC", "Potency": "inconclusive: 21.3 µM [inhibitor, partial curve, poor fit]"},
      {"smiles": "COc1ccc(CNC(=O)C(c2ccco2)N(C(=O)c2ccccn2)c2ccccc2)cc1", "note": "(stereo unspecified)", "Potency": "active: 6.75 µM"},
      {"smiles": "COc1ccc(OC)c(NC(=O)c2nnn(CCc3ccccc3)c2N)c1", "activity change, negative = inhibition": "inactive: 4.17%"},
      {"smiles": "Cc1ccccc1Cn1nnc(-c2ccc(C(=O)O)cc2)n1", "Potency": "inconclusive: 10.7 µM [inhibitor, partial curve, poor fit]"},
      {"smiles": "CCc1ccc2oc(-c3ccc(NC(=O)c4cc5ccccc5o4)cc3)nc2c1", "activity change, negative = inhibition": "inactive: -0.596%"},
      {"smiles": "CCCNC(=O)CCCN1C(=O)CCn2nc(-c3cccn3C)cc21", "activity change, negative = inhibition": "inactive: -1.32%"},
      {"smiles": "Cc1ccc(S(=O)(=O)CCC(=O)Nc2nccs2)cc1", "activity change, negative = inhibition": "inactive: 5.87%"},
      {"smiles": "CC(=O)c1ccc(NC(=O)CCOc2cc(C)ccc2C)cc1", "Potency": "inconclusive: 30.1 µM [inhibitor, single point]"},
      {"smiles": "CN1CCN(C(=O)c2ccc3c(c2)NC(=O)/C(=C/c2ccccc2)S3)CC1", "activity change, negative = inhibition": "inactive: -5.48%"},
      {"smiles": "CC(=O)c1cccc(NC(=O)Nc2ccc3c(c2)CCC3)c1", "Potency": "active: 2.39 µM"},
      {"smiles": "COc1cc(C(=O)O)nc2ccc([N+](=O)[O-])cc12", "Potency": "inconclusive: 37.9 µM [inhibitor, partial curve, poor fit]"},
      {"smiles": "COc1ccccc1OCCOc1ccc(/C=C2\\C(=N)N3N=C(S(C)(=O)=O)SC3=NC2=O)cc1", "Potency": "inconclusive: 26.9 µM [inhibitor, partial curve, poor fit]"},
      {"smiles": "CCn1c(C(=O)NCc2ccccc2Br)cc2oc3ccccc3c21", "activity change, negative = inhibition": "inactive: -10%"},
      {"smiles": "O=C(NCCCn1ccnc1)c1cc(-c2cccnc2)nc2ccc(Br)cc12", "Potency": "inconclusive: 23.9 µM [inhibitor, partial curve, poor fit]"},
      {"smiles": "O=C(/C=C/c1ccccc1)c1ccccn1", "Potency": "active: 1.35 µM"},
      {"smiles": "COc1ccsc1NC(=O)OCc1ccc(Cl)cc1", "Potency": "inconclusive: 21.3 µM [inhibitor, single point]"},
      {"smiles": "CN(C)S(=O)(=O)c1cc(NC(=O)C2=COCCO2)ccc1Cl", "Potency": "inconclusive: 37.9 µM [inhibitor, partial curve, poor fit]"},
      {"smiles": "COC(=O)c1ccc(NC(=O)c2ccccc2)o1", "Potency": "inconclusive: 23.9 µM [inhibitor, single point]"},
      {"smiles": "Cc1ccc(C(=O)NNS(=O)(=O)c2ccccc2[N+](=O)[O-])cc1", "Potency": "inconclusive: 30.1 µM [inhibitor, partial curve, poor fit]"},
      {"smiles": "COc1ccc(CN(C#N)c2nc(SC)nc(N(C)C)n2)cc1", "activity change, negative = inhibition": "inactive: 2.27%"},
      {"smiles": "CSCCC(NC(=O)c1ccccc1Cl)C(=O)NCC1COc2ccccc2O1", "note": "(stereo unspecified)", "Potency": "inconclusive: 21.3 µM [inhibitor, partial curve, poor fit]"},
      {"smiles": "CCC(N=c1cc(-c2ccc(OC)c(OC)c2)oc2ccc(C)cc12)C(=O)O", "note": "(stereo unspecified)", "activity change, negative = inhibition": "inactive: -11.1%"},
      {"smiles": "O=C(Nc1ccc([N+](=O)[O-])cc1)N1CCCCCC1", "Potency": "inconclusive: 21.3 µM [inhibitor, single point]"},
      {"smiles": "CC1=C(C(=O)Nc2ccccc2C(=O)NC2CCCCC2C)SCCO1", "note": "(stereo unspecified)", "Potency": "inconclusive: 37.9 µM [inhibitor, partial curve, poor fit]"},
      {"smiles": "Cc1cccc(Nc2ccncc2S(=O)(=O)NC(=O)NC(C)C)c1", "Potency": "inconclusive: 23.9 µM [inhibitor, partial curve, poor fit]"},
      {"smiles": "Cc1ccnc(NC(=O)c2ccc3c(c2)OCO3)c1", "Potency": "active: 2.13 µM"},
      {"smiles": "Cc1ccc(C(=O)N/C(=C\\c2ccc(Br)cc2)c2nc(=S)[nH][nH]2)cc1", "Potency": "inconclusive: 21.3 µM [inhibitor, partial curve, poor fit]"},
      {"smiles": "O=C(CCC1CCCCC1)NC1=NCCS1", "Potency": "inconclusive: 12 µM [inhibitor, single point]"},
      {"smiles": "CCCOc1cccc(C2c3c(-c4ccccc4O)n[nH]c3C(=O)N2Cc2ccco2)c1", "note": "(stereo unspecified)", "Potency": "inconclusive: 37.9 µM [inhibitor, partial curve, poor fit]"},
      {"smiles": "COc1cccc(/C=C2\\SC(=S)N(CCC(=O)NNC(=O)c3ccccc3OC)C2=O)c1", "activity change, negative = inhibition": "inactive: -17.6%"},
      {"smiles": "COc1ccc(C2=NS(=O)(=O)N(C)C(C(=O)N(C)Cc3ccccc3)=C2)cc1OC", "Potency": "inconclusive: 10.7 µM [inhibitor, partial curve]"},
      {"smiles": "CCOC(=O)Cn1nc(NC(=O)c2ccc3c(c2)OCO3)cc1C", "Potency": "inconclusive: 2.13 µM [inhibitor, partial curve, poor fit]"},
      {"smiles": "Cc1cc(N2CCOCC2)ccc1/C=C1/SC(=O)NC1=O", "Potency": "active: 15.1 µM"},
      {"smiles": "Cc1ccccc1OCc1nc2ccccc2n1Cc1ccccc1Cl", "Potency": "inconclusive: 30.1 µM [inhibitor, single point]"},
      {"smiles": "Cc1cc(NC(=O)CSCC(=O)NCc2cccc(C(F)(F)F)c2)no1", "activity change, negative = inhibition": "inactive: 3.59%"},
      {"smiles": "Cc1ccc(-n2ncc3c(N4CCCC4)ncnc32)c(C)c1", "Potency": "inconclusive: 26.9 µM [inhibitor, partial curve]"},
      {"smiles": "CCn1nc(NC(=O)c2ccco2)c2cc3ccc(C)cc3nc21", "Potency": "inconclusive: 9.53 µM [inhibitor, partial curve, poor fit]"}
    ]}
  ]
}
